Assay results from patent US20220073613A1, “ACTIVATABLE MASKED ANTI-CTLA4 BINDING PROTEINS” (Xilio Development, Inc., priority 2018, published 2022).

Tests used:
MC38 tumors = experiment: MC38 tumor volume in mouse model with a knock-in with human CTLA4; assay type: in vivo; settings: single injection of 20 μg, 7 μg, or 2 μg; compared to Antibody 2-10
Experimental: In another set of experiments, MC38 cells (1×10^6) were injected subcutaneously into a mouse model with a knock-in with human CTLA4. MC38 tumor-beating mice were administered a single injection of 200 μg of a test antibody (e.g., IgG control, Antibody 2-1, Antibody 2-10, ipilimumab, or an afucosylated form of ipilimumab (ipilimumab-aFuc) and immunophenotyping was performed on CD45+ splenic cells and CD45+ intratumoral cells five days after injection. In some studies, tumor volume over time was measured following a single injection of 20 μg, 7 μg, or 2 μg of the test antibody. CD45+ cells were assessed for markers including those selective for CD3+/ICOS+, CD3+ T cells, CD4+/Ki67+, CD3+/Ki67+, CD4+/ICOS+, CD4+ T cells, CD8+/ICOS+, CD8+ T cells, Tregs+/ICOS+, CD8+/Ki67+, Tregs, Tregs+/Ki67+, with relative proportions of CD45+ cells having those markers identified.

[1] = tested on: peripheral blood mononuclear cells (PBMCs); assay type: cell-based, human; settings: non-activated (without exposure to protease); compared to isotype control
MB49 tumors = experiment: MB49 murine bladder tumor model, efficacy and pharmacodynamics; assay type: in vivo, C57/BL6-huCTLA4 mice
Experimental: Efficacy and pharmacodynamics (PD) of anti-CTLA4 antibodies were assessed using the MB49 murine bladder tumor model. Efficacy was assessed by administering each test antibody (RSV-m control antibody, ipilimumab, Antibody 2-6, Antibody 2-14, and Antibody 2-15) and then assessing tumor volume and body weight. The anti-RSV control antibody contains S239D and I332E mutations (RSV-m control antibody). Peripheral immunophenotyping was also carried out on day 5, which assessed the percentage of CD4+Ki67+ cells and the percentage of CD4+ICOS+ cells in the peripheral blood on day 5 following administration. As used herein, dosing in mg/kg is also referred to as “mpk.” MB49 cells were inoculated subcutaneously into C57/BL6-huCTLA4 mice. Treatment started when the tumors reached approximately 350 mm^3. A One-way ANOVA with Dunnett's post-test was performed to determine the statistical significance of treatment vs control (RSV-m control). *P<0.05; **P<0.01; ***P<0.001; ****P<0.0001.
Pharmacodynamics is assessed by administering antibody to each of five cohorts of mice, with dosing (mg/kg) as shown in Table 16. Immunophenotyping among other readouts are performed in the tumor, liver, spleen, and blood. T cells are assessed by measuring Foxp3+CD25+ cells as a percentage of CD4+ cells, and CD8+ cells are measured as a percentage of CD45+ cells. Cleavage and drug levels in tumors, liver, kidney, spleen, and plasma is also assessed.

human CTLA4-Fc = biological target: T1, human CTLA4-Fc (Homo sapiens, UniProt P16410); experiment: Low density antigen binding ELISA, with or without protease activation; settings: Table 12, Protease +
T1 construct: purchased R&D Systems 7268-CT
Experimental: Masked antibodies were buffer exchanged into MMP cleavage buffer prior to incubation with the protease. For activation, protease (Anaspec, ProsecBio, and R&D Systems) was diluted to 100 ng/μL in MMP cleavage buffer (50 mM Tris pH 8.0, 150 mM NaCl, 10 mM CaCl2). APMA (10 mM in DMSO) was added to a final concentration of 1 mM. The enzyme was incubated at 37° C. for 1 hour. Activated protease was added to the masked antibodies at a ratio of 1:1000 antibody:protease (e.g., 1 ug MMP to 1 mg antibody) or an equal amount of buffer was added to negative control samples. Samples were incubated at 37° C. overnight.
Polystyrene 96-well microplates (Fisher #07-200-591) were coated with 1 μg/mL of human CTLA4-Fc (R&D #7268-CT) per well and stored overnight at 4° C. Plates were washed with 0.05% Tween in TBS (TBS-T), blocked with 1% BSA (Sigma Aldrich #B4287-25G), and washed with TBS-T. Serial dilutions of samples containing anti-CTLA4 antibodies were made in assay buffer (PBS+0.05% Tween+1% BSA), added to plate, and shaken orbitally at 100 RPM at room temperature for one hour. After washing with TBS-T, anti-human Kappa light chain [clone: SB81a]-HRP (Abcam #ab79115) diluted to 1:8000 in assay buffer was applied to the wells and shaken at room temperature for one hour. Plates were washed with TBS-T, HRP substrate (Super Signal Pico Chemiluminescent Substrate, Thermo #37069) was applied to plate, and luminescence was recorded using a spectrophotometer (BioTek). Data was analyzed with GraphPad Prism.
Humanized anti-CTLA4 antibodies were used in low density antigen binding ELISA described in Example 7. For assessing activation of masked activatable forms of the humanized anti-CTLA4 antibodies, recombinant proteases were used as outlined in Example 6.
Serial dilutions of the antibodies were made in assay buffer, added to 96-well microplates coated with human CTLA4-Fc, and shaken at room temperature for one hour. Plates were washed with TBS-T, blocked with BSA, and washed again with TBS-T. The antibodies were added to plate and shaken. After washing, anti-human Kappa light chain (conjugated to HRP) in assay buffer was applied to the wells and shaken at room temperature. Plates were washed again before HRP substrate was added. Luminescence was recorded using a spectrophotometer and data analyzed with GraphPad Prism.
FIG. 10A and FIG. 10B show binding studies with masked and unmasked versions of Antibody 2 in the absence (FIG. 10A) or presence (FIG. 10B) of protease. […] Higher concentrations of antibodies are necessary to show binding as evidenced by the shift to the right of the unmasked Antibody 2-6 and the IgG1 isotype (FIG. 10A). Masked antibodies are considered occluded by masking peptide. The occlusion of each masked antibody is shown in Table 7, below, and is calculated by dividing the EC50 for the masked antibody by the EC50 of the unmasked parental antibody, Antibody 2-6.
Unmasked parental Antibody 2-6 was included as a control and was not exposed to protease. Protease digestion was performed according to the protocol provided in Example 6.
A comparison of the in vitro sensitivity of the cleavable peptide sequences to select proteases is shown as radar plots in FIG. 11A-H. Activation of each antibody by each protease on the radar plot is depicted using a radar plot, where activation is depicted as ranging from 0 (no activation) to 1.0 (full activation). […] The occlusion of each masked antibody is shown in Table 12, below, and is calculated by dividing the EC50 for the masked antibody by the EC50 of the unmasked parental antibody, Antibody 2-6. Binding was conducted according to the protocol provided in Example 7 and Example 8 and proteolytic treatment of the antibodies was conducted to according to the protocol provided in Example 6 and Example 8. A solution of masked anti-CTLA4 antibody (1000 nM) was made in appropriate cleavage buffer. Two antibody samples were aliquoted into two 0.5 mL Eppendorf tubes. […]

[2] = tested on: Ki67+ cells in CD4+ cells; experiment: Pharmacodynamic effects in cynomolgus monkeys; settings: cynomolgus monkey, in vivo
Experimental: In a first set of experiments, cynomolgus monkeys were administered ipilimumab, Antibody 2-6, Antibody 2-10, or an isotype control, and pharmacodynamic (PD) effects were assessed by measuring the percentage (%) of Ki67+ cells in CD4+ cells. In a second set of experiments, cynomolgus monkeys were administered Antibody 2-6, Antibody 2-10, Antibody 2-14, Antibody 2-16, or an isotype control, and pharmacodynamic effects were assessed by measuring the percentage (%) of Ki67+ cells in CD4+ cells.

B1: Antibody 2-6: unmasked parental Antibody 2 with S239D and I332E; heavy chain SEQ ID NO: 421, light chain SEQ ID NO: 334 (antibody)
heavy: QVQLVQSGAEVKKPGSSVKVSCKASGYTFTNYFMNWVRQAPGQGLEWMGRVDPEQGRADYAEKFKKRVTITADKSTSTAYMELSSLRSEDTAVYYCARRAMDNYGFAYWGQGTLVTVSS[human IgG1 constant region with changes left out here]
light: EIVLTQSPDFQSVTPKEKVTITCSANSALSYMYWYQQKPDQSPKLWVHGTSNLASGVPSRFSGSGSGTDFTLTINSLEAEDAATYYCHHWSNTQWTFGGGTKVEIKRTVAAPSVFIFPPSDEQLKSGTASVVCLLNNFYPREAKVQWKVDNALQSGNSQESVTEQDSKDSTYSLSSTLTLSKADYEKHKVYACEVTHQGLSSPVTKSFNRGEC
Q: With B1 as the molecule, how does the “tumor volume over time” value (MC38 tumors) read?
A: Its value is “tumor growth is suppressed”.

Q: And the IL-2 production [1]?
A: The IL-2 production was “promoted strong IL-2 production”.

Q: What about the “anti-tumor activity (tumor volume)” value (MB49 tumors; 0.3 mg/kg dose) of the same molecule?
A: The value was “superior anti-tumor activity as compared to ipilimumab”.

Q: What about the “CD8/Treg ratios in tumors” value (MB49 tumors; 3 mg/kg, day 7) of the same molecule?
A: The value was “highest CD8/Treg ratios”.

Q: And the tumor weight (MB49 tumors; 3 mg/kg, day 7)?
A: The tumor weight was “lowest tumor weights”.

Q: What about the Occlusion (human CTLA4-Fc) of the same molecule?
A: The Occlusion was 1.0.

Q: And the “peripheral PD effects, percentage (%) of Ki67+ cells in CD4+ cells” value [2]?
A: The value was “more potent at inducing peripheral PD effects than ipilimumab”.
